# Data published in the supplement of paper PMC8728848.
# This is one part of the list.
# B1: CrataBL (Crataeva tapia), C0HJA4 (protein)
# chain: AILTGVPYYILPSTSRAGFSPDNLRKNTSQLSCPLDLITQLRFPRRIGVPVIFTPQNSSLKVVPLSHNLNIHTCSDLWFCPESKIWTVKSSLTHGGSVVTTGGTFRSLGSWFRIERHGDSYKLVHCPRGSTPCRDVGIETVGGGGRRYLAPRDRPLAVRFTRASG
# Tests used:
# Assay in all cases: glycan array binding signal (z-score within array); higher = stronger binding
# Conditions in all cases: glycan notation: IUPAC condensed, linker removed
# [1] = biological target: GlcNAc(b1-4)GlcNAc(b1-4)GlcNAc(b1-4)GlcNAc(b1-4)GlcNAc
# Procedure, shortened: (§1)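 Glycan array binding is given as a within-array Z-score, which can be read as non-binding when negative. The arrays, 3228 of them, came from the Consortium for Functional Glycomics database and were retained only where the protein sequence was available. Z-scores were averaged across arrays of the same protein sequence at different concentrations or buffers and across linkers.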
# [2] = biological target: GlcNAc(b1-4)GlcNAc(b1-4)GlcNAc(b1-4)GlcNAc(b1-4)GlcNAc(b1-4)GlcNAc
# Procedure, shortened: as §1
# [3] = biological target: GlcNAc(b1-4)[GlcNAc(b1-6)]GalNAc
# Procedure, shortened: as §1
# [4] = biological target: GlcNAc(b1-6)Gal(b1-4)GlcNAc
# Procedure, shortened: as §1
# GlcNAc(b1-6)GalNAc = biological target: GlcNAc(b1-6)GalNAc
# Procedure, shortened: as §1
# [5] = biological target: GlcNAc6S(b1-3)Gal(b1-4)GlcNAc
# Procedure, shortened: as §1
# Kdn(a2-3)Gal(b1-3)GalNAc = biological target: Kdn(a2-3)Gal(b1-3)GalNAc
# Procedure, shortened: as §1
# Kdn(a2-3)Gal(b1-3)GlcNAc = biological target: Kdn(a2-3)Gal(b1-3)GlcNAc
# Procedure, shortened: as §1
# Kdn(a2-3)Gal(b1-4)Glc = biological target: Kdn(a2-3)Gal(b1-4)Glc
# Procedure, shortened: as §1
# Kdn(a2-3)Gal(b1-4)GlcNAc = biological target: Kdn(a2-3)Gal(b1-4)GlcNAc
# Procedure, shortened: as §1
# [6] = biological target: Kdn(a2-3)Gal(b1-4)[Fuc(a1-3)]GlcNAc
# Procedure, shortened: as §1
# Kdn(a2-6)Gal(b1-4)GlcNAc = biological target: Kdn(a2-6)Gal(b1-4)GlcNAc
# Procedure, shortened: as §1
# [7] = biological target: Man(a1-2)Man(a1-2)Man(a1-3)Man
# Procedure, shortened: as §1
# [8] = biological target: Man(a1-2)Man(a1-2)Man(a1-6)[Man(a1-3)]Man
# Procedure, shortened: as §1
# Man(a1-2)Man(a1-3)Man = biological target: Man(a1-2)Man(a1-3)Man
# Procedure, shortened: as §1
# [9] = biological target: Man(a1-2)Man(a1-3)[Man(a1-2)Man(a1-6)]Man
# Procedure, shortened: as §1
# [10] = biological target: Man(a1-2)Man(a1-3)[Man(a1-2)Man(a1-6)]Man(a1-6)[Man(a1-2)Man(a1-2)Man(a1-3)]Man
# Procedure, shortened: as §1
# [11] = biological target: Man(a1-2)Man(a1-3)[Man(a1-2)Man(a1-6)]Man(a1-6)[Man(a1-2)Man(a1-2)Man(a1-3)]Man(b1-4)GlcNAc(b1-4)GlcNAc
# Procedure, shortened: as §1
# [12] = biological target: Man(a1-2)Man(a1-3)[Man(a1-6)]Man(a1-6)[Man(a1-2)Man(a1-3)]Man(b1-4)GlcNAc(b1-4)GlcNAc
# Procedure, shortened: as §1
# [13] = biological target: Man(a1-2)Man(a1-6)[Man(a1-3)]Man(a1-6)[Man(a1-2)Man(a1-2)Man(a1-3)]Man
# Procedure, shortened: as §1
# [14] = biological target: Man(a1-2)Man(a1-6)[Man(a1-3)]Man(a1-6)[Man(a1-2)Man(a1-2)Man(a1-3)]Man(b1-4)GlcNAc(b1-4)GlcNAc
# Procedure, shortened: as §1
# Man(a1-3)[Man(a1-6)]Man = biological target: Man(a1-3)[Man(a1-6)]Man
# Procedure, shortened: as §1
# [15] = biological target: Man(a1-3)[Man(a1-6)]Man(a1-6)[Man(a1-2)Man(a1-3)]Man(b1-4)GlcNAc(b1-4)GlcNAc
# Procedure, shortened: as §1
# [16] = biological target: Man(a1-3)[Man(a1-6)]Man(a1-6)[Man(a1-3)]Man
# Procedure, shortened: as §1
# [17] = biological target: Man(a1-3)[Man(a1-6)]Man(a1-6)[Man(a1-3)]Man(b1-4)GlcNAc(b1-4)GlcNAc
# Procedure, shortened: as §1
# [18] = biological target: Man(a1-3)[Man(a1-6)]Man(b1-4)GlcNAc(b1-4)GlcNAc
# Procedure, shortened: as §1
# [19] = biological target: Man(a1-3)[Man(a1-6)]Man(b1-4)GlcNAc(b1-4)[Fuc(a1-6)]GlcNAc
# Procedure, shortened: as §1
# Man(a1-6)Man = biological target: Man(a1-6)Man
# Procedure, shortened: as §1
# Man(b1-4)GlcNAc = biological target: Man(b1-4)GlcNAc
# Procedure, shortened: as §1
# MurNAc(b1-4)GlcNAc = biological target: MurNAc(b1-4)GlcNAc
# Procedure, shortened: as §1
# Neu5Ac(a2-3)Gal = biological target: Neu5Ac(a2-3)Gal
# Procedure, shortened: as §1
# [20] = biological target: Neu5Ac(a2-3)Gal(b1-3)GalNAc
# Procedure, shortened: as §1
# [21] = biological target: Neu5Ac(a2-3)Gal(b1-3)GalNAc(b1-3)Gal(a1-4)Gal(b1-4)Glc
# Procedure, shortened: as §1
# [22] = biological target: Neu5Ac(a2-3)Gal(b1-3)GalNAc(b1-4)[Neu5Ac(a2-3)]Gal(b1-4)Glc
# Procedure, shortened: as §1
# [23] = biological target: Neu5Ac(a2-3)Gal(b1-3)GalNAc(b1-4)[Neu5Ac(a2-8)Neu5Ac(a2-3)]Gal(b1-4)Glc
# Procedure, shortened: as §1
# [24] = biological target: Neu5Ac(a2-3)Gal(b1-3)GalNAc6S
# Procedure, shortened: as §1
# [25] = biological target: Neu5Ac(a2-3)Gal(b1-3)GlcNAc
# Procedure, shortened: as §1
# [26] = biological target: Neu5Ac(a2-3)Gal(b1-3)GlcNAc(b1-2)Man
# Procedure, shortened: as §1
# [27] = biological target: Neu5Ac(a2-3)Gal(b1-3)GlcNAc(b1-2)Man(a1-3)[GlcNAc(b1-4)][Neu5Ac(a2-3)Gal(b1-3)GlcNAc(b1-2)Man(a1-6)]Man(b1-4)GlcNAc(b1-4)GlcNAc
# Procedure, shortened: as §1
# [28] = biological target: Neu5Ac(a2-3)Gal(b1-3)GlcNAc(b1-2)Man(a1-3)[Neu5Ac(a2-3)Gal(b1-3)GlcNAc(b1-2)Man(a1-6)]Man(b1-4)GlcNAc(b1-4)GlcNAc
# Procedure, shortened: as §1
# [29] = biological target: Neu5Ac(a2-3)Gal(b1-3)GlcNAc(b1-3)Gal(b1-3)GlcNAc
# Procedure, shortened: as §1
# [30] = biological target: Neu5Ac(a2-3)Gal(b1-3)GlcNAc(b1-3)Gal(b1-4)GlcNAc
# Procedure, shortened: as §1
# [31] = biological target: Neu5Ac(a2-3)Gal(b1-3)GlcNAc(b1-3)GalNAc
# Procedure, shortened: as §1
# [32] = biological target: Neu5Ac(a2-3)Gal(b1-3)GlcNAc(b1-4)Gal(b1-4)Glc
# Procedure, shortened: as §1
# [33] = biological target: Neu5Ac(a2-3)Gal(b1-3)GlcNAc(b1-6)GalNAc
# Procedure, shortened: as §1
binder,measurement,setting,value
B1,glycan array binding signal (z-score),[1],-0.186
same,glycan array binding signal (z-score),[2],-0.205
same,glycan array binding signal (z-score),[3],-0.434
same,glycan array binding signal (z-score),[4],-0.119
same,glycan array binding signal (z-score),GlcNAc(b1-6)GalNAc,0.02
same,glycan array binding signal (z-score),[5],-0.245
same,glycan array binding signal (z-score),Kdn(a2-3)Gal(b1-3)GalNAc,0.64
same,glycan array binding signal (z-score),Kdn(a2-3)Gal(b1-3)GlcNAc,0.693
same,glycan array binding signal (z-score),Kdn(a2-3)Gal(b1-4)Glc,0.084
same,glycan array binding signal (z-score),Kdn(a2-3)Gal(b1-4)GlcNAc,0.368
same,glycan array binding signal (z-score),[6],0.009
same,glycan array binding signal (z-score),Kdn(a2-6)Gal(b1-4)GlcNAc,0.182
same,glycan array binding signal (z-score),[7],-0.486
same,glycan array binding signal (z-score),[8],-0.266
same,glycan array binding signal (z-score),Man(a1-2)Man(a1-3)Man,-0.472
same,glycan array binding signal (z-score),[9],-0.48
same,glycan array binding signal (z-score),[10],-0.445
same,glycan array binding signal (z-score),[11],-0.037
same,glycan array binding signal (z-score),[12],-0.377
same,glycan array binding signal (z-score),[13],-0.488
same,glycan array binding signal (z-score),[14],-0.135
same,glycan array binding signal (z-score),Man(a1-3)[Man(a1-6)]Man,-0.18
same,glycan array binding signal (z-score),[15],0.179
same,glycan array binding signal (z-score),[16],-0.041
same,glycan array binding signal (z-score),[17],0.044
same,glycan array binding signal (z-score),[18],-0.504
same,glycan array binding signal (z-score),[19],-0.329
same,glycan array binding signal (z-score),Man(a1-6)Man,0.34
same,glycan array binding signal (z-score),Man(b1-4)GlcNAc,0.247
same,glycan array binding signal (z-score),MurNAc(b1-4)GlcNAc,0.056
same,glycan array binding signal (z-score),Neu5Ac(a2-3)Gal,-0.42
same,glycan array binding signal (z-score),[20],0.131
same,glycan array binding signal (z-score),[21],-0.325
same,glycan array binding signal (z-score),[22],0.083
same,glycan array binding signal (z-score),[23],-0.399
same,glycan array binding signal (z-score),[24],0.421
same,glycan array binding signal (z-score),[25],0.134
same,glycan array binding signal (z-score),[26],0.238
same,glycan array binding signal (z-score),[27],-0.326
same,glycan array binding signal (z-score),[28],-0.455
same,glycan array binding signal (z-score),[29],-0.299
same,glycan array binding signal (z-score),[30],-0.256
same,glycan array binding signal (z-score),[31],-0.479
same,glycan array binding signal (z-score),[32],-0.112
same,glycan array binding signal (z-score),[33],0.598
